From the supplement of paper PMC10126150 come the findings set out here.

In this data set the test system is ATP. The data set is described as follows: switch fluorescence ratio, 500 uM ATP over buffer (Cy3 cluster intensity, sum of 5 cycles each) (fold (ratio)); higher = stronger signal-on switching upon ATP binding; sequences stand for … in TCGTCGGCAGCGTCAGATGTGTATAAGAGACAGTTTTTTTTTTTTTTTTTTTTTTTTT…TC. The following applies: aptamer strand: ATP DNA aptamer (quencher-CACCTGGGGGAGTATTGCGGAGGAAGG + anchor), 100 nM annealed; ATP concentration: 500 uM; one replicate. The method in brief: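 Per cluster, summed Cy3 intensity from the target cycles was divided by that from the buffer cycles to give the fluorescence ratio, then averaged per switch-domain sequence. Clusters outside 100-1000 RFU were excluded. The Cy3-labelled switching-strand clusters, on a modified Illumina MiSeq flow-cell, were annealed to 100 nM quencher-labelled ATP aptamer and imaged in selection buffer, then after 15 min with 500 uM ATP at 22 °C, for five cycles with NaOH stripping and re-annealing between them.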

Sequences with one replicate were seen in a single cluster, so their values are uncertain.
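Note: ATP exposure 15 min at 22 °C before imaging.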

Turning to GTGCAATCAG, the switch fluorescence ratio worked out at 1.11.
The value for TAGATGTAGG was 0.997; that for TCGATCGGA was 1.01; that for AAAACGGGAT was 0.967.
For ATATATAATA the value was 1.01; for ATTCTGATCT, 1.02.
For CGCTTGCTTT the value was 1.01; for GGACCCCATG, 1.05; for GATGAAGAGA, 1.01.
On to GATATTCAA, for which the switch fluorescence ratio is 0.941.
Turning to GCGGATTTTG, the switch fluorescence ratio worked out at 1.02.
Regarding GGGTTCGTGT, the switch fluorescence ratio came out at 1.04.
In the case of CCGTTTCGGG, the switch fluorescence ratio was found to be 0.986.
For AGTGAACAGT the value was 0.97.
CACGTACATT: the switch fluorescence ratio is 1.41.
Consider ATAAGACGCT, for which the switch fluorescence ratio turned out to be 1.07.
For ATTGGATGGA the value was 1.03; for GATTTCGCTT, 1.01; for TAGGAGGCG, 0.979.
For GTTGGAGTCG the value was 1.05; for CTACCTGGCA, 1.06.
On to CCCAGTGTGT, for which the switch fluorescence ratio turned out to be 4.21.
For ATTGCGTTTC the value was 1.08; for GCCGGGCAGG, 0.994.
As for TCATAGACAA, the switch fluorescence ratio came out at 1.03.
Turning to CCGGAACCAT, the switch fluorescence ratio stood at 1.14.
Turning to GGGAGCGGGC, the switch fluorescence ratio was 0.851.
TCTGAAGGCT: the switch fluorescence ratio turned out to be 1.05.
The value for ACACCTCTGT was 0.988; that for TTGTTGAAC was 0.933.
Consider CGATTGCTTA, for which the switch fluorescence ratio came out at 1.04.
On to GACACTCAGC, for which the switch fluorescence ratio was 1.02.
The value for GCATATGTCC was 1.07.
As to GGTCACGGGC, the switch fluorescence ratio turned out to be 0.949.
Turning to GAAAAAATAC, the switch fluorescence ratio is 1.64.
Take TCGTCTTGCT: the switch fluorescence ratio was determined as 1.02.
The value for TTGGGCCTAT was 1.02; that for TCCATTCATT was 0.988; that for ACTAATTTC was 1.03.
For GAGGAGAAAA the value was 0.949.
Regarding TCGTATGGAC, the switch fluorescence ratio is 1.04.
ACATGCTTGG: the switch fluorescence ratio stood at 0.98.
The value for AACGCATTAA was 2.42.
Turning to GATCTTTG, the switch fluorescence ratio is 0.978.
For TACTGTCTCT the value was 0.975; for CGTGACTTCC, 2.03.
For AAGACAGTA the value was 0.988.
As for AAACGCCGA, the switch fluorescence ratio worked out at 0.969.
For GGCTGTAGTA the value was 0.989; for ATCATGTTTT, 0.968; for GTGGTATTCT, 0.944.
The value for CTGGGTGCTA was 1.05.
With AGAATGATAT, the switch fluorescence ratio is 1.01.
The value for CTTGCAGCGA was 1.27; that for CGCCGGCGCG was 1.01; that for TTCCGGACTT was 1.24.
Turning to TACGGGCATT, the switch fluorescence ratio came to 1.16.
Turning to AATTAAGGAA, the switch fluorescence ratio was found to be 0.993.
For CCACTAGTTT, the switch fluorescence ratio was 0.971.
Turning to AGCGTTTAGC, the switch fluorescence ratio was determined as 0.982.
On to GTTCTCTCAG, for which the switch fluorescence ratio was 1.01.
Take CGAGTTGCAG: the switch fluorescence ratio stood at 1.
The value for TCCCATGGTC was 1.05.
For TCTCGAAAGG the value was 0.963.
Turning to ACGTGAAATC, the switch fluorescence ratio is 0.986.
The value for TTTTCGTTCT was 0.956.
Consider TCAGTCAGGA, for which the switch fluorescence ratio is 1.06.
The value for TGATCATGCT was 0.944; that for CCCTTTATAC was 1.65.
As for GCAGCATGCT, the switch fluorescence ratio came to 1.06.
In the case of GTTTGGTACT, the switch fluorescence ratio was 1.03.
On to TTGACACAAT, for which the switch fluorescence ratio stood at 1.4.
Regarding CAGTATACTA, the switch fluorescence ratio stood at 1.03.
Take AACCTGAGCA: the switch fluorescence ratio is 1.18.
Take ATGCACGCCC: the switch fluorescence ratio was 1.16.
For AACGCGGGGC the value was 1.04; for TGTCTGGT, 0.976.
For TATCTCGGGT the value was 0.986; for CTTGAGCCAC, 1.17; for ATGCGGAAC, 1.09.
As for ACCTTTCCTT, the switch fluorescence ratio came out at 1.3.
CGGGCATACA: the switch fluorescence ratio worked out at 1.11.
For the sequence AGGATAGCCA, the switch fluorescence ratio worked out at 1.02.
As for CAGTTTGGT, the switch fluorescence ratio is 1.02.
The value for AATATATCGT was 1.03.
ACTAATTCGC: the switch fluorescence ratio amounted to 1.06.
The value for ACCAGCCGCG was 1.08; that for CGAGCGTGGG was 1.02.
The value for GGCCAGAATC was 0.986; that for GATCGGGCAT was 1.
For CTTCGCCCTG the value was 1.18; for ATTTCTGAGA, 1.05; for TACCTAAAAT, 0.984.
For the sequence CTGATAGTGG, the switch fluorescence ratio came to 0.961.
For the sequence ATACTGAGG, the switch fluorescence ratio was 0.952.
As to CGCGGGCCG, the switch fluorescence ratio amounted to 1.
For CGGCACGGAG, the switch fluorescence ratio is 1.
For AAAAATTATA the value was 1; for GACGCCAGTT, 1.02; for GGCTGGATGC, 1.01.
Turning to GGACTACCTA, the switch fluorescence ratio amounted to 1.1.
The value for GAGGTCATT was 1.01; that for TCGTGGGCTT was 0.981; that for CATAGAACA was 0.974.
AAACCGAGAA: the switch fluorescence ratio is 0.969.
For CCGAGGTAGT the value was 1.04; for CGGTACATTT, 1.03.
The value for CCGTGGTACG was 1.27; that for TAGTTGGGCC was 0.991; that for AGACAGACAC was 1.14.
GGTGAATAAC: the switch fluorescence ratio was found to be 0.999.
Consider ACTCAATTAC, for which the switch fluorescence ratio turned out to be 2.21.
For CGGTGCACCC the value was 0.985; for GGTTTCTTTC, 1.02; for GTAAGTACAT, 1.26.
Take CTGACGTATA: the switch fluorescence ratio worked out at 3.93.
The value for TACTAGTATT was 1; that for TATGACGTT was 0.987; that for ACTCTTCGC was 1.08.
With GGGCTGGCGG, the switch fluorescence ratio came to 0.971.
